This is an account of results in article PMC11345399 (The Journal of Biological Chemistry, 2024).

Holding throughout (type): biochemical
The target in one test is SARS-CoV-2 RdRp (Severe acute respiratory syndrome coronavirus 2, UniProt P0DTD1).
For the next test, the target named is HRV-16 RdRp (Human rhinovirus 16, UniProt Q82122).
In the next test the test system is EV-71 RdRp.

As for `N#C[C@]1(COP(=O)(O)OP(=O)(O)OP(=O)(O)O)O[C@@H](c2ccc3c(N)ncnn23)[C@H](O)[C@@H]1O` [GS-646939], the “Inhibition (fold) of subsequent nucleotide incorporation, ratio of Vmax/Km vs AMP-terminated primer” value at SARS-CoV-2 RdRp is recorded as 2542 fold; on HRV-16 RdRp, 751 fold; with EV-71 RdRp, 4,642 fold.
The like results for `N#C[C@@]1(c2ccc3c(N)ncnn23)O[C@H](COP(=O)(O)OP(=O)(O)OP(=O)(O)O)[C@@H](O)[C@H]1O` [GS-443902] were, in that order, 0.88 fold, 2.81 fold and 4.50 fold.
